# Test results: the supplement of paper PMC11417369
# This is one part of the list.
# Tested on: PfAP2-HC AP2 domain (GST-tagged)
# Assay: gcPBM binding intensity (ln(normalized median fluorescence intensity)); higher = stronger DNA binding
# Outline: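 Each value is the highest Masliner-normalised natural-log median intensity across replicate spots of either orientation of a probe. The probes were primer-extended double-stranded 36-bp intergenic genomic sequences on an Agilent 4 × 180k array, alongside negative controls, exposed for 1 h to GST-tagged P. falciparum DNA-binding domains expressed in E. coli. Bound protein was picked up with Alexa488 anti-GST antibody and scanned at 488 nm.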
row,Sequence,gcPBM binding intensity (ln)
1,GTAATGTCGTCGTTTTGTACATATTTTTATAAAAAG [XGTACX_site2688],9.65
2,AAAAAAAAAAAGAACTCACACATAATAATGTATATG [CACACA_site4974],9.66
3,AAAGGAGACAGAATAAGAATAAATATTATACATATA [XGTACX_negctrl_site412],9.62
4,TATTAGTCGAATGATGTACACACATACAAAACATTT [CACACA_site9331],9.86
5,TTAAAATTATATCTGTGTACATAAATTGTGTAACTA [XGTACX_site1966],9.54
6,TGGGAAAACCCCAGAAGTACGCTTAATATAAAAAAT [XGTACX_site697],9.34
7,ATAATGTTCCTATGATGTACTTATAATTATCATTTT [XGTACX_site4017],10
8,ATTAAAATAATATAAACACACATATACTTTTTTCTA [CACACA_site565],9.79
9,TATTGTTCGTTTAAGGTGCTATTGTTTGCAAAATAT [GTGCAC_site9412],9.64
10,AAGAGGTTATTACATTCACATAACATCAATATACGT [GTGCAC_negctrl_site264],9.68
11,ATTCATATGTGACACACACACACACGCATAAAAAAA [CACACA_site7515],10.6
12,TTAAAACATATTTTGAATTAATATATTTTAATATTA [XGTACX_negctrl_site148],9.12
13,TAGCGTACATTTCATTGTAATCATAAAAAATAAAGA [CACACA_negctrl_site447],9.55
14,ACAAAAATATATATATGTACATATATCATCATAATA [XGTACX_site5850],9.68
15,TTTATTAGAACCGTACGTACATAGTTATTTTTTCAA [XGTACX_site8848],9.56
16,TTTAAAACCCTAAAAAAAAAAAAAAAAAAAAAAAAA [CACACA_negctrl_site1212],9.01
17,GTTTGTATAGGTTCATGTACAAAAAAAAAAAAAAAA [XGTACX_site537],9.23
18,ATGCATAAAAGAAATACACACATAAATATGTAAATA [CACACA_site7087],9.93
19,TTTTATCTCATTCATCAAAATCACCGGAATCATATA [CACACA_negctrl_site357],9.27
20,TAATAAACAAATTCCAAAATAAATTAAAAGGAAAAT [CACACA_negctrl_site1404],9.67
21,AGGTATATATTACAAGTGCACTGTAAAATTAAAATT,9.72
22,ATTTATTTATATTTAGTGCAATACTATTTTTAAATA [GTGCAC_site9886],9.48

row,Sequence,gcPBM binding intensity (ln)
1,ATTTTATCATAATAAAGTACAAAGATGCAAATAATA [XGTACX_site2270],9.69
2,TATGCTATAATACTCTGTACTTACTAATTTAATAAT [XGTACX_site5926],9.79
3,TATATATATATATGGGTGCATTTTTTTGTCCATGTA [GTGCAC_site9868],9.58
4,ATAAAATAAATGAAAAATGTAAAATGAGAAAAAAAT [CACACA_negctrl_site1026],10
5,TACATATTTTTTATATGTACATATTTTTTATGTGTA [XGTACX_site442],9.65
6,TAAACATACCTATACACACACACACGCACACGCACA [CACACA_site6372],10.6
7,ATAATATATGAGCAATGTACATATTTCTCATTGCAC [XGTACX_site2253],9.6
8,TTTCTATATTGGCATACATGCAAGAACGAAAAGATT [TGCATGCA_site117],9.55
9,TAAAAATTGCACAGAAGTACAGTATAAATATATATA [XGTACX_site3421],9.61
10,GTTCCAGGCATTCGTGCGCACAAATAGAAACAATTA [GTGCAC_site9824],9.6
11,TAAGTATACGCATACACACACACACCCAAAAAAAAA [CACACA_site425],10.4
12,CATTCAATTGAAAAATGTACAAAAATAAACATATGC [XGTACX_site1663],9.79
13,AATAGGAAGACTATTTTGTATTTGATTTTTTATTCC [GTGCAC_negctrl_site453],9.79
14,AAAAGGTATCCACATACGCACACCAAAAAAAAAAAT [CACACA_site347],9.88
15,TCTTTTTTTTTTTTTTTTTTTTTTTATTTATTCATA [CACACA_negctrl_site1827],9.5
16,ATACAACAATGTGAATTATATATGGATGGAGAATGA [GTGCAC_negctrl_site148],9.89
17,ACGTAAGCGAATAAAAGTACATATATTAAAAAAAAA [XGTACX_site4458],9.59
18,TTCTTAAGGAACGAACGTACAGAATAAAAAGTAAAA [XGTACX_site4294],9.58
19,TTGTGAAACATCAAGAAAAAGAAATAATAAAAAGAA [GTGCAC_negctrl_site38],9.6
20,GTTGAACATATATGCACACACATAAAATAAAAAAAA [CACACA_site2413],9.97
21,TTATATTAATATATATGTACATATATTTTTTTTATA [XGTACX_site6981],9.79
22,ATATATATGTTTTATAGTACACACATAAATGGACAT [XGTACX_site4538],9.82

row,Sequence,gcPBM binding intensity (ln)
1,CTATTATTTTTAAATTGTACTATAACAAAATGTATA [XGTACX_site3916],9.52
2,AAATAAATCTATAATACACACAAAAATATAAAATGC [CACACA_site7700],10
3,TTTATATTTATATAAATATAATATATATGAATTATA [XGTACX_negctrl_site466],9.03
4,TTAGATATGTGTAAGGGTACAAAATACTTTACATTT [XGTACX_site8204],9.58
5,CTTCAATATATTCTTACACACTTAAAAAAAAAAATA [CACACA_site4287],9.3
6,TTAAGAAATAACAATGCACACATTTAGGTCTTTTAT [CACACA_site3285],9.73
7,ATAACTTGTATATATACACACACACCCTTTCTTTTT [CACACA_site8600],10.4
8,TATATTATATTATACATACACACCCATATAATATGT [CACACA_site869],10.1
9,TTTTCGATGTTGGTAGGAAGTTTGGTACACGTAGTA [TGCATGCA_negctrl_site145],9.6
10,CGTATTTATAGAATTACACACCATATTGTAATTATT [CACACA_site7722],9.72
11,GTGTTTTTATTATTTTGTACACATATATTTAATATT [XGTACX_site2109],10.1
12,TTTTTTTTGTAATACGCATGCTAAAAATATTTATAA [TGCATGCA_site656],9.41
13,TTGTCCCTATAAGGGGAACACACATAAATGAATATA [CACACA_site8250],9.57
14,AAAACTATTTGTAAAAGTACATAATAAATAAATAAA [XGTACX_site7922],9.8
15,ATAATGTTTTATAATACACACATTATGTATATAAAT [CACACA_site4077],9.8
16,AAAATTCATATATACACACACGCACATATATATATA [CACACA_site90],10.8
17,GAATGTCTAATTTTGATGCACACTTTTGTGCAATTA [CACACA_site2902],9.63
18,TTATATTATTCGTGTGTGCACGATATTTCATAATTG [GTGCAC_site9767],9.8
19,CAAAAAATTCAACACACACACACACCGATAAATAAA [CACACA_site8330],10.7
20,TTTCCTTATAAAAATACACACAAACTTTAATTAAAA [CACACA_site7710],9.49
21,TATTCCAAATTTACTAGTACATAATCCATCCGATAA [XGTACX_site1558],9.46
22,TTTCTTTTTAAATGCTGTACAAAGGGTGACGTTAAA [XGTACX_site4724],9.44

row,Sequence,gcPBM binding intensity (ln)
1,TATTACACATATTATACACACATATATTATAGATAT [CACACA_site6839],9.94
2,TATATATATATATATTGTACACATTGTGTTTAAATA [XGTACX_site5104],9.6
3,AATAGAATGTAATATACACACATATATTTCTCTTTT [CACACA_site2630],9.78
4,TTTTTATTGTTAATTTTAATTTTTTTTTTTTAATGC [CACACA_negctrl_site162],9.33
5,TTGTAACCTATGCACGCACACAAGAAAAAAACAAAA [CACACA_site3775],10
6,TTTTCTTTTTTTTTTGTGCACATAATATATAATTAT,9.8
7,ATATTTTTTAGTAAGACGAAATAAATAAATCTTTAT [CACACA_negctrl_site1778],9.22
8,TATATATATATAAGCACACAAACAAAAAAAATTATA [CACACA_site3897],9.98
9,TTTTTCCTATTTTTAGTGCACATATAAATAAATAAA [GTGCAC_site9821],9.26
10,ATTGAATATGTAAATGCACACCAAAAAAAAAAAAAA [CACACA_site9189],9.7
11,ATTTTTTATATTTAGTGTACATGTTTTAATTTATAA [XGTACX_site7512],9.71
12,ATAACTTTATTCAGTTTGCACTTTTATAACAAAAGA,9.47
13,CTTATATAATTCGATAGTACATATTTTTATATATAT [XGTACX_site4045],9.68
14,TTTACTCCTACAACATGTACATAAAATAAATTTTTT [XGTACX_site5010],9.58
15,ACATGTTAACTAAATGTACACACCTATGTTGATGTA [CACACA_site1821],9.72
16,TTATTTACAACTTTTTTTTTTTTATTTTATTTTATT [CACACA_negctrl_site341],9.61
17,ACATAGCAATGTTTCACACACAAGAAAAAATACAAT [CACACA_site2379],10
18,TTTGAACTCTTAAGTGGTACAAATTTGTATTTTCTC [XGTACX_site2322],9.61
19,GAAATGTGGTAATATACACACACGCATATATTTATA [CACACA_site6285],9.89
20,AATGGAATATATATTTGTACATAAATATTATAATAA [XGTACX_site8524],9.6
21,TATAAATAAAAATATACACACTGTATTATTGTAATA [CACACA_site7721],9.68
22,TCGTGGTTTTAATAAGTGCGCAATTTAAATATTTTT,9.74
